# Laboratory results taken from the supplement of paper PMC10037445.
# The full ranking holds about 2,900 compounds; the median of “NF-kB SEAP reporter activity, fold change vs agonist alone” is about 0.99, and the highest 2% start at about 2.6. The list shows a part of the results.
# Tests used:
# [1] = test system: RAW-Dual; test: NF-kB SEAP reporter activity, fold change vs agonist alone; higher = enhanced NF-kB activity
# Outline: (§1)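 After 50 nL of library stock was delivered by pin tool to RAW-Dual macrophages (50,000 cells/well, DMEM, 384-well plates), a PRR agonist was added 1 h later and the plates were kept at 37 °C, 5% CO2. Twenty hours later, IRF was read from supernatant by QuantiLuc luminescence and NF-κB by QuantiBlue absorbance at 620 nm. Reporter activity is stated as fold change over agonist-alone wells. Wells with IncuCyte confluency under 70% of agonist controls in both mask sets were counted as cytotoxic.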
# [2] = test system: RAW-Dual; test: NF-kB SEAP reporter activity, fold change vs agonist alone; cytotoxicity flag (confluency mask): not cytotoxic; higher = enhanced NF-kB activity
# Outline: as §1
# [3] = test system: RAW-Dual; test: NF-kB SEAP reporter activity, fold change vs agonist alone; cytotoxicity flag (confluency mask): cytotoxic (confluency <70% of control); higher = enhanced NF-kB activity
# Outline: as §1
# [4] = library stock concentration (final ~1000-fold dilution): 10 mM, cytotoxicity flag (confluency mask): cytotoxic (confluency <70% of control), agonist: Imiquimod (TLR7) […]
# [5] = library stock concentration (final ~1000-fold dilution): 10 mM, cytotoxicity flag (confluency mask): cytotoxic (confluency <70% of control), agonist: MPLA (TLR4) […]
# [6] = agonist: ODN 1826 (TLR9) 0.5 ug/mL
# [7] = agonist: Pam2CSK4 (TLR2/6) 0.1 ug/mL
# [8] = agonist: Pam3CSK4 (TLR2/1) 0.1 ug/mL
# [9] = library stock concentration (final ~1000-fold dilution): 10 mM, cytotoxicity flag (confluency mask): not cytotoxic, agonist: Imiquimod (TLR7) […]
# [10] = library stock concentration (final ~1000-fold dilution): 10 mM, cytotoxicity flag (confluency mask): not cytotoxic, agonist: MPLA (TLR4) […]
structure (smiles),measurement,setting,value
COc1cc2c(Oc3ccc4[nH]c(C)cc4c3F)ccnc2cc1OCC1(N)CC1.Cl.Cl,NF-kB SEAP reporter activity,[1]; [4],1.53
same,NF-kB SEAP reporter activity,[1]; [5],1.89
C#Cc1cccc(Nc2ncnc3cc(OCCOC)c(OCCOC)cc23)c1.Cl (library stock concentration (final ~1000-fold dilution): 2 mM),NF-kB SEAP reporter activity,[2]; agonist: LPS (TLR4) 0.1 ug/mL,2.26
same,NF-kB SEAP reporter activity,[2]; [6],0.972
same,NF-kB SEAP reporter activity,[2]; [7],0.853
same,NF-kB SEAP reporter activity,[2]; [8],1.1
C#Cc1cccc(Nc2ncnc3cc(OCCOC)c(OCCOC)cc23)c1.Cl,NF-kB SEAP reporter activity,"[1]; library stock concentration (final ~1000-fold dilution): 2 mM, cytotoxicity flag (confluency mask): not cytotoxic, agonist: Imiquimod (TLR7) […]",0.949
same,NF-kB SEAP reporter activity,"[1]; library stock concentration (final ~1000-fold dilution): 2 mM, cytotoxicity flag (confluency mask): not cytotoxic, agonist: MPLA (TLR4) […]",1.39
COc1ccc(-c2cc(=O)c3c(O)cc(OC)cc3o2)cc1 (library stock concentration (final ~1000-fold dilution): 10 mM),NF-kB SEAP reporter activity,[2]; agonist: LPS (TLR4) 0.1 ug/mL,0.876
same,NF-kB SEAP reporter activity,[2]; [6],0.967
same,NF-kB SEAP reporter activity,[2]; [7],0.962
same,NF-kB SEAP reporter activity,[2]; [8],0.955
COc1ccc(-c2cc(=O)c3c(O)cc(OC)cc3o2)cc1,NF-kB SEAP reporter activity,[1]; [9],0.972
same,NF-kB SEAP reporter activity,[1]; [10],1.1
O=c1c2ccccc2nc2n1CCc1c-2[nH]c2ccccc12 (library stock concentration (final ~1000-fold dilution): 10 mM),NF-kB SEAP reporter activity,[2]; agonist: LPS (TLR4) 0.1 ug/mL,1.5
same,NF-kB SEAP reporter activity,[2]; [6],1.04
same,NF-kB SEAP reporter activity,[2]; [7],0.926
same,NF-kB SEAP reporter activity,[2]; [8],1.18
O=c1c2ccccc2nc2n1CCc1c-2[nH]c2ccccc12,NF-kB SEAP reporter activity,[1]; [9],1.33
same,NF-kB SEAP reporter activity,[1]; [10],1.19
O=C(/C=C/C=C/c1ccc2c(c1)OCO2)N1CCCCC1,NF-kB SEAP reporter activity,[1]; [9],0.975
same,NF-kB SEAP reporter activity,[1]; [10],1.05
O=C(/C=C/C=C/c1ccc2c(c1)OCO2)N1CCCCC1 (library stock concentration (final ~1000-fold dilution): 10 mM),NF-kB SEAP reporter activity,[2]; agonist: LPS (TLR4) 0.1 ug/mL,0.958
same,NF-kB SEAP reporter activity,[2]; [6],0.995
same,NF-kB SEAP reporter activity,[2]; [7],1
same,NF-kB SEAP reporter activity,[2]; [8],0.978
CN(C)CCCn1cc(C2=C(c3c[nH]c4ccccc34)C(=O)NC2=O)c2ccccc21 (library stock concentration (final ~1000-fold dilution): 10 mM),NF-kB SEAP reporter activity,[3]; agonist: LPS (TLR4) 0.1 ug/mL,0.346
same,NF-kB SEAP reporter activity,[3]; [6],0.491
same,NF-kB SEAP reporter activity,[3]; [7],0.833
same,NF-kB SEAP reporter activity,[3]; [8],0.564
CN(C)CCCn1cc(C2=C(c3c[nH]c4ccccc34)C(=O)NC2=O)c2ccccc21,NF-kB SEAP reporter activity,[1]; [4],1.13
same,NF-kB SEAP reporter activity,[1]; [5],1.59
CNC(C)C(=O)NC(C(=O)N1CCCC1c1nc(C(=O)c2ccc(F)cc2)cs1)C1CCCCC1 (stereo not given),NF-kB SEAP reporter activity,[1]; [4],1.16
same,NF-kB SEAP reporter activity,[1]; [5],0.714
CNC(C)C(=O)NC(C(=O)N1CCCC1c1nc(C(=O)c2ccc(F)cc2)cs1)C1CCCCC1 (stereo not given) (library stock concentration (final ~1000-fold dilution): 10 mM),NF-kB SEAP reporter activity,[3]; agonist: LPS (TLR4) 0.1 ug/mL,0.436
same,NF-kB SEAP reporter activity,[3]; [6],0.764
same,NF-kB SEAP reporter activity,[3]; [7],0.902
same,NF-kB SEAP reporter activity,[3]; [8],0.517
O=C(Nc1cccc(Nc2ncc(Br)c(NCCc3cnc[nH]3)n2)c1)N1CCCC1 (library stock concentration (final ~1000-fold dilution): 10 mM),NF-kB SEAP reporter activity,[2]; agonist: LPS (TLR4) 0.1 ug/mL,0.575
same,NF-kB SEAP reporter activity,[2]; [6],0.568
same,NF-kB SEAP reporter activity,[2]; [7],0.268
same,NF-kB SEAP reporter activity,[2]; [8],0.35
O=C(Nc1cccc(Nc2ncc(Br)c(NCCc3cnc[nH]3)n2)c1)N1CCCC1,NF-kB SEAP reporter activity,[1]; [9],0.673
same,NF-kB SEAP reporter activity,[1]; [10],0.889
CCCCC(=O)N(Cc1ccc(-c2ccccc2-c2nn[nH]n2)cc1)C(C(=O)O)C(C)C.CCOC(=O)C(C)CC(Cc1ccc(-c2ccccc2)cc1)NC(=O)CCC(=O)O (stereo not given) (library stock concentration (final ~1000-fold dilution): 10 mM),NF-kB SEAP reporter activity,[2]; agonist: LPS (TLR4) 0.1 ug/mL,1.08
same,NF-kB SEAP reporter activity,[2]; [6],1.9
same,NF-kB SEAP reporter activity,[2]; [7],1.23
same,NF-kB SEAP reporter activity,[2]; [8],1.19
CCCCC(=O)N(Cc1ccc(-c2ccccc2-c2nn[nH]n2)cc1)C(C(=O)O)C(C)C.CCOC(=O)C(C)CC(Cc1ccc(-c2ccccc2)cc1)NC(=O)CCC(=O)O (stereo not given),NF-kB SEAP reporter activity,[1]; [9],1.27
same,NF-kB SEAP reporter activity,[1]; [10],1.01
